Laboratory results taken from PubChem BioAssay AID463173 (ICCB-Longwood Screening Facility, Harvard Medical School, 2010).
Out of some 52,000 compounds screened, about 4,300 (8.3%) were called active. No stated cut-off is given here; in the data, active means survival mostly below about 52% (no sharp cut-off); inactive means mostly above about 56%. The list shows a part of the results.

Tested on: DeltatarO mutant
Test: S. aureus survival, RN4220 and DeltatarO strains – OD600, teichoic acid synthesis inhibitors, primary screen (AID 463173)
Conditions: S. aureus RN4220 wild type/DeltatarO growth, OD600, 18 h, hits give low values, screened at 18.75 µg/mL (by protocol)

Row | SMILES | survival
1 | CCCCCn1c(=N)n(CC(O)COc2cccc(C)c2)c2ccccc21 (stereo unspecified) | inactive: 59%
2 | O=C(CSCc1cnn(-c2ccccc2)c1-n1cccc1)Nc1ccc(F)cc1F | inactive: 60%
3 | Cc1ccc2oc(=O)n(CCNC(=O)Nc3ccc(C)c(F)c3)c2c1 | inactive: 108%
4 | Cc1ccccc1CSc1nc2cccnc2n1Cc1ccc(C(=O)NCCc2cccs2)cc1 | active: 47%
5 | Cc1ccc(N2CCN(C(=O)c3noc4c3COc3ccc(C)cc3-4)CC2)c(C)c1 | inactive: 75%
6 | Cc1ccc(CN(C(=O)COc2ccc(Br)cc2)c2ccccn2)o1 | inactive: 62%
7 | COc1ccc(NC(=O)CSc2nc(-c3ccccc3)nc3c2Cc2c(CO)cnc(C)c2O3)cc1Cl | inactive: 69%
8 | COc1ccc(Cl)cc1N(C)C(=O)C(=O)Nc1ccc2nc3n(c(=O)c2c1)CCCCC3 | inactive: 51%
9 | Cc1ccc(C)c(N2CCN(C(=O)C(C)n3c(C)c4cnn(-c5ccccc5)c(=O)c4c3C)CC2)c1 (stereo unspecified) | inactive: 64%
10 | COc1ccc(-c2noc(CCC(=O)NCc3ccc(OC)cc3OC)n2)cc1 | inactive: 119%
11 | CCCN(CCC)CC(O)Cn1cc(/C=C/C(=O)c2ccc(OCC)cc2)c2ccccc21 (stereo unspecified) | active: 11%
12 | CCn1cc(C(=O)N(C)Cc2ccccc2)c(=O)c2cc(S(=O)(=O)N3CCCCCC3)ccc21 | inactive: 70%
13 | COC(=O)c1ccc(Cl)c(NC(=O)C2CCN(S(=O)(=O)Cc3ccccc3)CC2)c1 | inactive: 104%
14 | Cc1cccc(C(=O)Nc2cccc(OCc3cc(=O)n4c(C)csc4n3)c2)c1 | inactive: 65%
15 | CCc1ccc(NC(=O)c2cc3c(=O)n(Cc4cccnc4)ccc3nc2C)cc1 | inactive: 101%
16 | CC(C)c1nn2c(=O)cc(COC(=O)CNC(=O)c3ccccc3)nc2s1 | inactive: 129%
17 | COc1ccc(Nc2nc(N)nc(CSc3nc4cc(OC)ccc4s3)n2)cc1 | active: 41%
18 | COc1ccc(NC(=O)Cc2csc(COc3cccc(C)c3)n2)c(OC)c1 | inactive: 90%
19 | CCOC(=O)c1c(-c2cccs2)csc1NC(=O)c1ccccc1 | inactive: 103%

Row | SMILES | survival
20 | CCCc1nn2c(=O)cc(COC(=O)c3ccccc3NC(=O)C3CCCCC3)nc2s1 | inactive: 78%
21 | O=C(CCCC(=O)Nc1nccs1)Nc1nccs1 | inactive: 83%
22 | CCC(=O)N1CCc2cc(S(=O)(=O)CCC(=O)NCc3ccccc3Cl)ccc21 | inactive: 100%
23 | COC(=O)c1c(C)sc(-c2c(-c3ccc(F)cc3)[nH]c3[nH]c(=O)[nH]c(=O)c23)c1O | inactive: 116%
24 | Cc1ccc(NC(=O)C2CCN(S(=O)(=O)c3cccs3)CC2)cc1 | active: 40%
25 | CCOc1cccc(CC(=O)N2CCc3c([nH]c4ccccc34)C2c2ccc(OC)cc2)c1OCC (stereo unspecified) | inactive: 86%
26 | COc1ccc(Cn2c(C(=O)O)c(CNCCc3cccs3)c3ccc(OC)cc32)cc1 | inactive: 64%
27 | COc1cccc(CNCCCSc2nnnn2C)c1 | inactive: 101%
28 | Cc1oc2ncn(C)c(=O)c2c1C(=O)N1CCN(c2ccc(Cl)cc2)CC1 | inactive: 61%
29 | Cc1ccccc1CN1C(=O)c2ccccc2S(=O)c2ccc(C(=O)NCc3ccccc3)cc21 (stereo unspecified) | inactive: 85%
30 | COc1ccc(CCNC(=O)CCc2c(C)nc3c(-c4ccc(F)cc4)c(C)nn3c2C)cc1OC | inactive: 127%
31 | CC1=C(C(=O)OC2CCCCCC2)C(c2ccccc2Cl)CC(=O)N1 (stereo unspecified) | inactive: 72%
32 | COCCCNC(=O)N1CCN(c2nnc(C)c3c(C)n(-c4ccc(Cl)cc4)nc23)CC1 | inactive: 96%
33 | Cc1ccc(-n2c(SCc3nc(-c4ccc(Cl)cc4)no3)nnc2-c2ccncc2)cc1 | active: 37%
34 | CCc1ccc(NS(=O)(=O)c2ccc3[nH]cc(C(=O)N4CCCCCC4)c(=O)c3c2)cc1 | inactive: 73%
35 | O=C1CN(C(=O)c2ccc(S(=O)(=O)N3CCCC3)cc2)C(c2ccc(F)cc2)c2cc(F)ccc2N1 (stereo unspecified) | inactive: 62%
36 | CCc1cccc(NC(=O)c2sc3nc[nH]c(=O)c3c2C)c1 | inactive: 83%
37 | CCOC(=O)Cc1ccc(NC(=O)N2CCC(CN3CCC(C)CC3)CC2)cc1 | inactive: 81%
38 | COc1ccc(N(C(=O)c2ccc(C)cc2)S(=O)(=O)c2ccc(Cl)cc2)cc1 | inactive: 76%

Row | SMILES | survival
39 | CCN(c1ccccc1)S(=O)(=O)c1nnc(NC(=O)C(C)Oc2ccccc2)s1 (stereo unspecified) | inactive: 43%
40 | COc1cc(C2C(C(=O)Nc3ccc(C)cc3C)=C(C)Nc3nc(SCc4ccccc4)nn32)cc(OC)c1OC (stereo unspecified) | inactive: 64%
41 | O=C1c2oc3ccccc3c(=O)c2C(c2cccc(O)c2)N1Cc1ccc(F)cc1 (stereo unspecified) | inactive: 77%
42 | CCOc1ccc(N(CC(=O)Nc2ccc3c(c2)OCO3)S(=O)(=O)c2ccccc2)cc1 | inactive: 87%
43 | Cc1ccccc1Nc1c(-c2ccccc2O)nc2sccn12 | inactive: 69%
44 | Cc1nn(C)c2c1c(-c1ccccc1)cc(=O)n2Cc1c(F)cccc1Cl | active: -5%
45 | O=C(c1cc(-c2ccc(Cl)cc2)on1)N(Cc1ccc(F)cc1)Cc1ccco1 | inactive: 78%
46 | CCOc1ccc(C(=O)Nc2cc(-c3ccccc3)no2)cc1 | inactive: 90%
47 | COc1ccc(N(Cc2cccs2)C(=O)COc2ccc([N+](=O)[O-])cc2)cc1 | inactive: 58%
48 | CCN(Cc1ccccc1)C(=O)c1cc2ccc3cccnc3c2[nH]1 | inactive: 49%
49 | CCOc1ccccc1NC(=O)c1cc2ccc3cccnc3c2[nH]1 | active: 37%
50 | Cc1ccc2oc3c(c(=O)c2c1)C(c1cccc(O)c1)N(CCCN1CCOCC1)C3=O (stereo unspecified) | inactive: 80%
51 | Cc1ccc(CNC(=O)c2cnn3c(C)c(Cc4c(F)cccc4Cl)c(C)nc23)cc1 | inactive: 70%
52 | Cc1cccc(-c2nnc(SCC(=O)NC3CCCCC3)o2)c1 | inactive: 82%
53 | COCCNC(=O)CCn1c(=O)c2cc(OC)c(OC)cc2n(CC(=O)Nc2ccccc2OC)c1=O | inactive: 97%
54 | COc1ccccc1NC(=O)c1c(C)cc(C)nc1SCC(=O)Nc1cccc(C)c1 | inactive: 52%
55 | CCc1cccc(CC)c1N(COC)C(=O)Cn1c(C)nc2ccccc21 | inactive: 59%
56 | CCN(CC)CCOC(=O)c1ccc(NC(=O)CSc2cc(=O)n(CC)c3ccccc23)cc1 | inactive: 131%
